The numbers were not newly measured in paper PMC11006913, which cites them from elsewhere.

Targets include ARX (Homo sapiens) (UniProt Q96QS3); ARX L343Q (Homo sapiens) (UniProt Q96QS3); ARX P353L (Homo sapiens) (UniProt Q96QS3); ARX P353R (Homo sapiens) (UniProt Q96QS3); ARX R332H (Homo sapiens) (UniProt Q96QS3); ARX T333N (Homo sapiens) (UniProt Q96QS3); ISX (Homo sapiens) (UniProt Q2M1V0); ISX R83Q (Homo sapiens) (UniProt Q2M1V0).
Common to all, as to conditions: PBM; conditions not shown; double strand, one strand shown; scale: upbm affinity estimate (log intensity, higher = more binding, comparable within an allelic series)
In data set [1] the target is PROP1 R112Q (Homo sapiens) (UniProt O75360).
Data set [2] has as its target PITX2 L100Q (Homo sapiens) (UniProt Q99697).
The target of data set [3] is PITX2 R108H (Homo sapiens) (UniProt Q99697).
The target of data set [4] is PITX2 R130W (Homo sapiens) (UniProt Q99697).
Data set [5] has as its target PITX2 T114P (Homo sapiens) (UniProt Q99697).
In data set [6] the target is PROP1 R99Q (Homo sapiens) (UniProt O75360).
In another data set the target is T1, PBX4 (Homo sapiens) (UniProt Q9BYU1).
T1 sequence: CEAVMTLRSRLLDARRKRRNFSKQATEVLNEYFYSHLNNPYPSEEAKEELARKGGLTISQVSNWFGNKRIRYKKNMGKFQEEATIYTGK

Data set [7] concerns the target T2, PBX4 R215Q (Homo sapiens) (UniProt Q9BYU1).
T2 sequence: T1 sequence with R19Q

Residue numbers refer to the chain shown, from its start. This is one part of the list.

For the sequence AATGAATT [8-mer AATGAATT], the binding signal with ARX (Homo sapiens) is 11.8; with ARX L343Q (Homo sapiens) it was 10.7; with ARX P353L (Homo sapiens), 11.5; in the data set with ARX P353R (Homo sapiens), 10.6; with ARX R332H (Homo sapiens) it was 10.9; in data set [1], 12.2.

As for ACCCGACG [8-mer ACCCGACG], the binding signal with ARX (Homo sapiens) was 10.2; in the data set with ARX L343Q (Homo sapiens) it was 10.2; with ARX P353L (Homo sapiens), 10.2; in the data set with ARX P353R (Homo sapiens) it was 10.1; with ARX R332H (Homo sapiens) it was 10.2; in the data set with ARX T333N (Homo sapiens), 10.4. In addition, the binding signal in data set [2] is 8.39; in data set [3], 8.21; in data set [4] it was 8.09; in data set [5], 8.26.

With ATCAATTC [8-mer ATCAATTC], the binding signal with ARX (Homo sapiens) is 11.2; with ARX L343Q (Homo sapiens), 10.7; with ARX P353R (Homo sapiens), 10.6.

Regarding AATTAGGG [8-mer AATTAGGG], the binding signal is 12.9 with ARX (Homo sapiens); 10.8 with ARX L343Q (Homo sapiens); 12.4 with ARX P353L (Homo sapiens); 10.6 with ARX P353R (Homo sapiens); 10.8 with ARX R332H (Homo sapiens); 11.9 with ARX T333N (Homo sapiens). Moreover, the binding signal in the data set with ISX (Homo sapiens) is 14.6; in the data set with ISX R83Q (Homo sapiens) it was 13.2; in data set [1] it was 12.6; in data set [6], 12.2.

Take GATGCCCC [8-mer GATGCCCC]: the binding signal in the data set with ARX (Homo sapiens) is 10.2; with ARX L343Q (Homo sapiens), 10.2; with ARX P353L (Homo sapiens), 10.1; with ARX P353R (Homo sapiens), 10.2; with ARX R332H (Homo sapiens), 10.2; with ARX T333N (Homo sapiens) it was 10.2. Further, the binding signal with PBX4 (Homo sapiens) is 9.84; in [7], 9.77.

In the case of CTAATTTA [8-mer CTAATTTA], the binding signal was 12.6 with ARX (Homo sapiens); 10.7 in the data set with ARX L343Q (Homo sapiens); 12.2 with ARX P353L (Homo sapiens); 10.7 with ARX P353R (Homo sapiens); 10.8 with ARX R332H (Homo sapiens); 11.7 with ARX T333N (Homo sapiens). The binding signal is 14.8 with ISX (Homo sapiens), 13.3 with ISX R83Q (Homo sapiens), 12.5 in data set [1] and 11.9 in [6].

As to ATCGAATC [8-mer ATCGAATC], the binding signal in the data set with ARX (Homo sapiens) was 11.3; in the data set with ARX L343Q (Homo sapiens), 10.6; with ARX P353R (Homo sapiens), 10.6.

As for CGAACCCC [8-mer CGAACCCC], the binding signal with ARX (Homo sapiens) was 10.2; with ARX L343Q (Homo sapiens), 10.3; with ARX P353L (Homo sapiens), 10.3; in the data set with ARX P353R (Homo sapiens) it was 10.1; with ARX R332H (Homo sapiens), 10.3; in the data set with ARX T333N (Homo sapiens), 10.3. In addition, the results for the binding signal in data set [1] and in [6] were 10.9 and 11, respectively.

For ATAATCTC [8-mer ATAATCTC], the binding signal with ARX (Homo sapiens) was 11.3; in the data set with ARX L343Q (Homo sapiens) it was 10.8; with ARX P353L (Homo sapiens), 11; with ARX P353R (Homo sapiens) it was 10.7; with ARX R332H (Homo sapiens), 10.8; in the data set with ARX T333N (Homo sapiens) it was 11. Besides, the binding signal is 11 in [2], 9.28 in data set [3], 8.67 in data set [4] and 9.55 in data set [5].

As for GCGGACCC [8-mer GCGGACCC], the binding signal with ARX (Homo sapiens) is 10.1; with ARX L343Q (Homo sapiens), 10.1; with ARX P353L (Homo sapiens), 10.1; with ARX P353R (Homo sapiens), 9.98; in the data set with ARX R332H (Homo sapiens), 10.1; with ARX T333N (Homo sapiens), 10.2. Further, the binding signal in data set [1] and in [6] was 10.9 throughout.

As to AGGGGGCC [8-mer AGGGGGCC], the binding signal is 9.99 in the data set with ARX (Homo sapiens); 9.85 with ARX L343Q (Homo sapiens); 10 in the data set with ARX P353L (Homo sapiens); 9.75 with ARX P353R (Homo sapiens); 9.86 in the data set with ARX R332H (Homo sapiens); 10.1 in the data set with ARX T333N (Homo sapiens). Further, the values for the binding signal with ISX (Homo sapiens) and in the data set with ISX R83Q (Homo sapiens) were 9.51 and 9.67, respectively.

Turning to CGTCCCGC [8-mer CGTCCCGC], the binding signal is 9.96 with ARX (Homo sapiens); 10.1 with ARX L343Q (Homo sapiens); 10 in the data set with ARX P353L (Homo sapiens); 10.1 with ARX P353R (Homo sapiens); 10 with ARX R332H (Homo sapiens); 10.1 with ARX T333N (Homo sapiens). Also, the binding signal was 9.79 with ISX (Homo sapiens), 9.68 with ISX R83Q (Homo sapiens), 10.7 in [1] and 10.8 in data set [6].

Take GTAATCGA [8-mer GTAATCGA]: the binding signal in the data set with ARX P353L (Homo sapiens) was 11.7.

Consider AATATAGC [8-mer AATATAGC], for which the binding signal is 11.1 with ARX (Homo sapiens) and 10.6 in the data set with ARX P353R (Homo sapiens).

As for TAATGAGA [8-mer TAATGAGA], the binding signal with ARX P353L (Homo sapiens) is 12.3.

As to GAAATTTA [8-mer GAAATTTA], the binding signal in the data set with ARX (Homo sapiens) was 11.2; in the data set with ARX L343Q (Homo sapiens) it was 10.6; with ARX P353R (Homo sapiens), 10.7; with ARX R332H (Homo sapiens) it was 10.6.

Turning to GATCGTTA [8-mer GATCGTTA], in the data set with ARX P353L (Homo sapiens), the binding signal was 11.4.

Take AAATTGTA [8-mer AAATTGTA]: the binding signal with ARX (Homo sapiens) is 11.3; with ARX L343Q (Homo sapiens), 10.8; in the data set with ARX P353R (Homo sapiens), 10.7; with ARX T333N (Homo sapiens), 11.1.

Turning to GGTGTTAA [8-mer GGTGTTAA], the figures for the binding signal in the data set with ARX (Homo sapiens), in the data set with ARX L343Q (Homo sapiens) and with ARX R332H (Homo sapiens) were 11.2, 10.6 and 10.6, respectively.

With GCTAATGA [8-mer GCTAATGA], in the data set with ARX P353L (Homo sapiens), the binding signal was 12.3.
